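Protocol summary: plate cells (96-well), add compound at 5 concentrations, incubate 48 h, interpolate endpoints linearly. GI50 is the concentration that inhibits growth by half.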 The source made the active and inactive calls. Rule as the data show it: active = GI50 up to about 1.1 µM and inactive = higher.

In this assay the test system is NCI-H322M. Kind of assay: NCI tumour cell line growth inhibition, 48 h.
As for `C=C1CCC2C(C)(CO)C(O)CCC2(C)C1C/C=C1\C(=O)OCC1O` (stereo unspecified), the GI50 is inactive: 29 µM.
Under `Cc1nc2ccccc2nc1-c1ccc(/N=[N+](\[O-])c2ccc(-c3nc4ccccc4nc3C)cc2)cc1` stands inactive: > 100 µM; under `CC1=CC(C)(C)Nc2ccc(CSc3ccccc3)cc21`, inactive: 28.1 µM.
In the case of `CC/C(=N/O)c1ccc2[nH]c3c(C)cc([N+](=O)[O-])c(C)c3c2c1` it was inactive: > 100 µM; in that of `CC(=O)O[C@]1(C)OC(=O)[C@@H](CC(C)C)N1[N+](=O)[O-]`, inactive: > 100 µM.
Under `NC1=Nc2ncccc2C(=O)NN1` stands inactive: 9.33 µM.
For `COc1cccc2c1OC(c1ccc(C#N)cc1)C([N+](=O)[O-])=C2` (stereo unspecified), the GI50 was inactive: 4.82 µM.
Regarding `Cc1ccc2c(c1)NC(=O)C(N=[N+]=[N-])(c1ccccc1)C2=O` (stereo unspecified), the GI50 was inactive: 51.2 µM.
Under `C=C1C(=O)OC2C1C(=O)C/C(C)=C/CCC1(C)OC21` (stereo unspecified) stands inactive: > 100 µM.
For `O=C(N/N=C/c1cc(Br)ccc1O)N/N=C/c1cc(Br)ccc1O`, the GI50 was inactive: 7.62 µM.
In the case of `CCOCN1COCN(C)C1=O` it was inactive: > 100 µM; in that of `O=C1NC2OCC(O)C(O)C2O1` (stereo unspecified), inactive: > 100 µM; in that of `CN(C)CCCNC(=O)CCNC(=O)c1cc(NC(=O)c2cc(NC(=O)c3cc(NC(=O)c4nccn4C)cn3C)cn2C)cn1C`, inactive: > 100 µM.
In the case of `COc1cccc(/C=C(\NC(C)=O)c2nc3cc(Cl)ccc3[nH]2)c1` it was inactive: > 100 µM; in that of `c1ccc2c(c1)Cn1c-2nc2ccccc21`, inactive: 86.9 µM.
Regarding `CC(C)(C)OC(=O)N1CCc2c(n(C/C=C/c3ccccc3)[nH]c2=O)C1`, the GI50 is inactive: > 100 µM.
As to `CCCCCCCC(=O)OC[n+]1ccc(-c2c(COC(=O)NC(C)C)c(COC(=O)NC(C)C)c3n2CCC3)cc1`, the GI50 is inactive: > 100 µM.
In the case of `COC(=O)[C@@H](NC(=O)c1ccc(CNC(=O)/C(C)=C/c2ccccc2)cc1)C(C)C` it was inactive: 71.9 µM.
In the case of `O=[N+]([O-])c1ccc(N/N=C/CC(O)(C(F)(F)F)C(F)(F)F)c([N+](=O)[O-])c1` it was inactive: 5.3 µM; in that of `Cc1ccc2c(CC(=O)O)cc(=O)oc2c1`, inactive: > 100 µM.
With `CCOC(=O)c1cccc(/N=N/Nc2cccc(C(=O)OCC)c2)c1`, the GI50 is inactive: 88.7 µM.
Under `Cn1c(=O)oc2cc(C(=O)CSC(=S)N3CCCCCC3)ccc21` stands inactive: > 100 µM; under `CN1CCCC(OC(=O)c2cc3cc(CCl)ccc3oc2=O)C1` (stereo unspecified), inactive: 17.9 µM.
Under `O=C1/C(=C/c2cccc([N+](=O)[O-])c2)COc2ccccc21` stands inactive: > 30.3 µM; under `O=C(c1ccncc1)n1nc(-c2ccccc2)c(/N=N/c2ccc([N+](=O)[O-])cc2)c1-c1ccccc1`, inactive: 24.4 µM.
Under `C=CCOC1=C(OC(C)=O)C(=O)OC1C1COC(C)(C)O1` (stereo unspecified) stands inactive: > 96.2 µM; under `Cc1cc2c(s1)C(N)CC2=O` (stereo unspecified), inactive: > 100 µM.
`CCCCCCCCCOC(=S)NC`: the GI50 is inactive: 30.2 µM.
Under `O=C(Nc1nc(C23CC4CC(CC(C4)C2)C3)cs1)c1cc2cc(Cl)ccc2oc1=O` stands inactive: > 100 µM; under `C#CCn1c(=O)c(I)cn(/C(=C/C(=O)OCC)C(=O)OCC)c1=O`, inactive: 16.8 µM; under `c1ccc(COCC2OC3c4ccccc4COC3C2OCc2ccccc2)cc1` (stereo unspecified), inactive: > 100 µM.
Under `c1ccc(C2N=NN(c3ccccc3)C2N2CCCCC2)cc1` (stereo unspecified) stands inactive: > 100 µM.
Under `O=C1/C(=C\c2ccccc2)C(NC2CCCCC2)c2ccccc21` (stereo unspecified) stands inactive: 13 µM; under `COC(=O)[C@H](CNC(=O)/C=C/c1ccc(OC(C)=O)c(OC(C)=O)c1)NC(=O)/C=C/c1ccc(OC(C)=O)c(OC(C)=O)c1`, inactive: > 100 µM.
Consider `O=C(N/N=C(COc1cccc(Cl)c1)\N=C\c1cccnc1)c1ccncc1`, for which the GI50 was inactive: > 100 µM.
Under `CS/C(c1ccccc1)=[N+](/C)[O-]` stands inactive: > 100 µM; under `CC(=O)OCC1OC(N2C(c3ccccc3)=CC(c3ccco3)C(C#N)=C2S)C(OC(C)=O)C(OC(C)=O)C1OC(C)=O` (stereo unspecified), inactive: 26.3 µM; under `O=C1Nc2cccc(C(F)(F)F)c2/C1=N/Nc1ccccc1[N+](=O)[O-]`, inactive: 27.5 µM.
In the case of `NC(Cc1n[nH]c2ccccc12)C(=O)O` (stereo unspecified) it was inactive: > 100 µM; in that of `O=C1Nc2ccccc2NC1C1OC(c2ccccc2)=CC1=O` (stereo unspecified), inactive: > 100 µM; in that of `C(/COc1cccnc1)=N\NC1=NCCN1`, inactive: > 100 µM.
Take `Cc1cccc(C)c1NC(=O)C1C(=O)N(c2c(C)cccc2C)C(=O)/C1=N\NC(N)=S` (stereo unspecified): the GI50 was inactive: > 100 µM.
Turning to `COC(=O)NC1=NNC(=O)c2ccccc2N1`, the GI50 was inactive: > 100 µM.
In the case of `O=C(N/N=C/c1ccccc1O)c1cccc([N+](=O)[O-])c1` it was inactive: 28.6 µM; in that of `Cc1ccc(C)c(C(=O)CC2OC(O)C(Cl)C2Cl)c1` (stereo unspecified), inactive: > 100 µM.
Regarding `N#CCCN(CCC#N)c1ccc(C(=N/c2ccc(Cl)cc2)/N=N/c2ccccc2)cc1`, the GI50 is inactive: > 100 µM.
`COc1cc(/C=C2\N=C(c3ccccc3)N(c3ccc4c(c3)Sc3cc(N5C(=O)/C(=C/c6cc(OC)c(OC)c(OC)c6)N=C5c5ccccc5)ccc3N4)C2=O)cc(OC)c1OC`: the GI50 was inactive: 20.4 µM.
Under `COc1ccc(C(=O)O[C@H]2[C@@H]3C=CO[C@@H](OC4OC(CO)C(O)C(O)C4O)[C@@H]3[C@@]3(CO)O[C@@H]23)cc1O` (stereo partly specified) stands inactive: > 100 µM; under `Nc1nc(N)c(N=O)c(Nc2ccc(I)cc2)n1`, inactive: 32.7 µM; under `C=CC[C@H](N=C(SC)SC)C(=O)N1C(=O)N(C)[C@@H](C)[C@H]1c1ccccc1`, inactive: 46.2 µM.
Under `O=c1[nH]c(=O)n(C2CC(O)C(CS)O2)cc1F` (stereo unspecified) stands inactive: 37.2 µM.
In the case of `CC(C)(Cc1ccccc1)N1C(=O)N1C(C)(C)Cc1ccccc1` it was inactive: > 100 µM; in that of `Cc1ccc(-c2c(N)nc(NC#N)nc2CCC(=O)Nc2ccccc2[N+](=O)[O-])cc1`, inactive: > 100 µM.
For the compound `CC(=O)C1=CC=C/C1=N\Nc1ccccc1`, the GI50 is inactive: 10.6 µM.
Regarding `C1=NN2C(c3ccccc3)=NOC2C2C(c3ccccc3)=NOC12` (stereo unspecified), the GI50 was inactive: > 100 µM.
Under `Cc1cc(S(=O)(=O)N=C2NCC(C)(C)CN2)c(S)cc1Cl` stands inactive: 41.8 µM.
In the case of `O=CN(O)CC(=O)O` it was inactive: > 100 µM; in that of `c1ccc(-c2nnc(-c3nsc4ccccc34)o2)cc1`, inactive: > 100 µM; in that of `O=C1C=C2SC3C[C@@]24CC1(O)[N+]1=c2c4c(c(O)c4c2=C(C=N4)CC1)N3`, inactive: 1.52 µM.
As for `Nc1ccc(-c2nn3c(COc4ccc(Cl)cc4)nnc3s2)cc1`, the GI50 was inactive: > 100 µM.
`CN1CCN(c2cc3nc4cc(O)cc(O)c4c(O)c3cc2N)CC1`: the GI50 was inactive: 26.8 µM.

The values above are taken from ChEMBL document CHEMBL1201862, “PubChem BioAssay data set” (2004).
